Test [1] concerns the target GPNMB-V5His (recombinant human GPNMB extracellular domain with C-terminal V5-His tag) (human) (UniProt Q14956). Put plainly: ELISA, coated GPNMB, Ab 1 ug/mL. (In general: In an ELISA, binding on a coated surface is turned into a signal by an enzyme label.)
Test [2] shares this target. The experiment in a line: ELISA, coated GPNMB, Ab 3 ug/mL.
Test [3] shares this target. The experiment in a line: ELISA, coated GPNMB, Ab 37 ng/mL.
For test [4] the target is unchanged. Put plainly: ELISA, coated GPNMB, Ab 111 ng/mL.
The target is the same in test [5]. The experiment in a line: ELISA, coated GPNMB, Ab 333 ng/mL.
Test [6] has the same target. Put plainly: ELISA, coated GPNMB, Ab 12.3 ng/mL.

The source of these data is US20160311919A1.

B1: 2-24 (hybridoma of Table 6) (antibody, V domains shown)
VH: QLVQSGAEVKKPGESLKISCQGSGYIFTNYWIGWVRQMPGKGLEWMGVIYPDDSDTRYSPSFQGQVTISADKSISTAYLQWSSLKASDTAIYYCARQKWLQHPFDYWGQGTLVTVSS
VL: [about 100 residues not printed]FGQGTKVEIKR
Regarding B1, the Avg OD was 0.042 OD in test [1]; 0.06 OD in test [2]; 0.016 OD in test [3]; 0.023 OD in test [4]; 0.028 OD in test [5]; 0.017 OD in test [6].
